Laboratory results as given in the supplement of paper PMC3334620.
Over roughly 33,000 sequences, “E-score (-0.5 to 0.5)” has its median near -0.035; the highest 2% begin near 0.35. Some of the results follow.

molecular target: T1, Pdr3 (UniProt P33200); assay: PBM E-score (8-mer binding enrichment) (E-score (-0.5 to 0.5)); higher = stronger / more preferred TF binding; most listed sequences are background and not binding sites; settings: protein concentration: 200 nM; construct: GST-full length
T1 sequence: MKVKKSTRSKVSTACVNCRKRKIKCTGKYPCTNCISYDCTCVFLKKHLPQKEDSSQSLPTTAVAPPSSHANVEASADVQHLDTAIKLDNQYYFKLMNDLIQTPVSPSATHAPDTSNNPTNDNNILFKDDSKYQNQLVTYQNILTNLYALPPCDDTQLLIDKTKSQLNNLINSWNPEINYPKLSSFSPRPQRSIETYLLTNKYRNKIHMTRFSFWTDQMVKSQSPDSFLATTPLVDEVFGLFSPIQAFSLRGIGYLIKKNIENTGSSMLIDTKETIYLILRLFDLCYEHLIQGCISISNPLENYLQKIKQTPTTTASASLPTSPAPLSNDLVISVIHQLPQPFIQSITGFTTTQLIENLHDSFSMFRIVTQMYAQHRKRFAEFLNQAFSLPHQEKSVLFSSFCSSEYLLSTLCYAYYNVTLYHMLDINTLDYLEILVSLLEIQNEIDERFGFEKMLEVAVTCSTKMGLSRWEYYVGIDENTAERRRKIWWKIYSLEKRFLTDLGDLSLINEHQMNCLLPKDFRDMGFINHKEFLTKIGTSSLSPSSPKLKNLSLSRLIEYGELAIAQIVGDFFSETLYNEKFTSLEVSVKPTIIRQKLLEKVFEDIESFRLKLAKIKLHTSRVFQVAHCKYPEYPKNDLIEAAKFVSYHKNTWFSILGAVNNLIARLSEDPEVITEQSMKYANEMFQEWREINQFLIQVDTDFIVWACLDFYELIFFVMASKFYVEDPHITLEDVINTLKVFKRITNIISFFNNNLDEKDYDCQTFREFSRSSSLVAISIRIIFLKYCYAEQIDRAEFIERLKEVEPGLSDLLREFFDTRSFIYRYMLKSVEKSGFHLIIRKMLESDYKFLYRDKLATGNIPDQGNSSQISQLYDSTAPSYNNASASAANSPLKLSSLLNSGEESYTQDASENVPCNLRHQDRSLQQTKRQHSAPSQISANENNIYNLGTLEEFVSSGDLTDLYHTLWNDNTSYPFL
Method in brief: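 E-scores (a modified Wilcoxon-Mann-Whitney statistic) were assigned by the Universal PBM Analysis Suite to every ungapped eight-base word pooled with its reverse complement. The input came from universal all-10-mer Agilent arrays made double-stranded by primer extension and probed with GST-tagged yeast transcription factors at about 100-200 nM. Fluorescent anti-GST detected bound protein, and masliner normalised the scans.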

| Sequence | PBM E-score |
| --- | --- |
| GAGAAGTA | -0.0889 |
| CTCCCAGA | -0.309 |
| GCCATGGC | -0.142 |
| ACAGAAGC | -0.0348 |
| AGCACCCA | -0.223 |
| ATACGAAC | 0.105 |
| GAGGGGGA | -0.248 |
| AGTTCCTA | 0.0135 |
| ATCATGTG | -0.122 |
| AACTTAGT | 0.0208 |
| ATAATGCG | 0.0962 |
| GGCTCCCC | -0.0502 |
| CGGGATAC | 0.342 |
| ACTGATCG | -0.21 |
| GCCTGGGA | 0.0624 |
| AAACTACA | 0.0828 |
| ACGGCAGA | 0.258 |
| CATCGAAC | 0.0312 |
| ACTGTGTG | 0.00651 |
| AACCTAGT | -0.0312 |
| ATTTTTAC | -0.193 |
| CGTCTATA | -0.0571 |

| Sequence | PBM E-score |
| --- | --- |
| ACAGTAGT | -0.0966 |
| GCGTAGAA | -0.136 |
| CACGACCC | 0.00094 |
| CCGTCAGA | 0.0984 |
| CCGCCGGC | 0.401 |
| CTTTCCCC | 0.117 |
| ACTGAAAC | 0.0653 |
| ACACAAAA | 0.0544 |
| ATGTTGTA | -0.0741 |
| AGCTGCTG | -0.0512 |
| CATATAGA | -0.0939 |
| ATCTGGTG | -0.0696 |
| ATGCCCAA | -0.119 |
| ACGCGATC | 0.135 |
| CGAGGACA | 0.0468 |
| AGTCTGAT | -0.133 |
| GAGACACC | -0.058 |
| GGCTTCAC | 0.0412 |
| GCCGATGA | 0.203 |
| AAGTGTGT | -0.187 |
| GGAAAGGA | 0.256 |
| GACCTAAC | -0.00092 |

| Sequence | PBM E-score |
| --- | --- |
| AACGCCGG | 0.245 |
| CTAAACGA | -0.068 |
| CTTCTCGA | -0.199 |
| CGACCCCC | -0.282 |
| GAGGTCAC | -0.0512 |
| ACCGGTGG | -0.019 |
| CCACAGAC | -0.233 |
| GGACTCAC | 0.00627 |
| TAATCACA | -0.142 |
| ACGAAAGC | -0.165 |
| ATGAACCG | -0.138 |
| ACCTTAAG | -0.116 |
| CCCCGAAA | 0.209 |
| AATCGTCG | 0.0795 |
| ACGTTGAC | -0.228 |
| CAAGGCGG | 0.00901 |
| AGAAGCTA | -0.125 |
| ATACCCAA | -0.047 |
| AATGGCAC | -0.0476 |
| GTCCCCAA | -0.159 |
| GCAGGTAA | -0.0309 |
| AATGCGCG | 0.341 |

| Sequence | PBM E-score |
| --- | --- |
| GTGGTAGA | -0.152 |
| CTCGCGCA | -0.029 |
| ACACGCCT | -0.296 |
| ATCTGCTA | -0.241 |
| AATGACCG | 0.151 |
| CCGTCGAC | 0.234 |
| GCTGATAC | -0.0772 |
| CCCCAGGA | -0.164 |
| GCGCAGAC | 0.0291 |
| CTCCCGAC | 0.083 |
| AAGGCTTC | -0.145 |
| ACGCGATG | 0.0398 |
| CCAGAAGA | -0.334 |
| CCTTTCAA | -0.0764 |
| GAGAGATA | -0.0138 |
| CCTACAAG | -0.0848 |
| ATGATAGA | 0.00887 |
| CGACTCTA | -0.131 |
| CCCTGACC | 0.0389 |
| CACCACAG | -0.0522 |
